One may read the IC50 as the midpoint of a concentration-inhibition curve.

Consider 58 cell lines from the supplement of paper PMC4967469.

Compound in the assay: C=CC(=O)Nc1cccc(Nc2nc(NC3CCC(N(C)C)CC3)nc3c2ncn3C(C)C)c1 [WZ3105]
In words: Viability of human cancer cell lines after 72 h of drug (GDSC screen). The settings on record: top dose inferred. As to the method:
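Human cancer cell lines in 384-well plates, medium with 10% serum, drug for 72 h over a 256-fold dose range (nine 2-fold or five 4-fold steps up to the top dose). Adherent lines were fixed and stained with the nucleic acid dye Syto60, suspension lines read with resazurin; signal relative to control wells, capped at 0 and 100%. One two-parameter sigmoid per drug and line, fitted in a mixed model over all curves with the slope shared within a line.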

Lines with a small IC50 respond at low doses; fits outside the tested doses are given as limits. AUC, from the same fit, is the share of area under the viability curve across the 256-fold dose range; the more sensitive the line, the further below 1. An inferred top dose is not printed in the source and was worked back from the curve model.

Regarding “NCI-H727 (lung carcinoid, adherent, top dose 1.28 µM)”, the AUC came out at 0.916 and the IC50 was > 1280 nM.

Take “NCI-H747 (large intestine, adherent, top dose 10.24 µM)”: the AUC worked out at 0.163 and the IC50 came to 45 nM.

For “NCI-H748 (small cell lung carcinoma, suspension, top dose 1.28 µM)”, the AUC came to 0.435 and the half-inhibitory concentration (IC50) was 50.5 nM.

For the cell line “NCI-H810 (large cell lung carcinoma, adherent, top dose 1.28 µM)”, the AUC was 0.683 and the half-maximal inhibitory concentration (IC50) turned out to be 254 nM.

For “NCI-H838 (lung adenocarcinoma, adherent, top dose 1.28 µM)”, the AUC stood at 0.854 and the IC50 was determined as 1080 nM.

“NCI-H841 (small cell lung carcinoma, adherent, top dose 1.28 µM)”: the AUC came out at 0.741 and the half-inhibitory concentration (IC50) was found to be 394 nM.

On to “NCI-H847 (small cell lung carcinoma, adherent, top dose 1.28 µM)”, for which the AUC is 0.566 and the IC50 was found to be 117 nM.

In the case of “NCI-H1048 (small cell lung carcinoma, adherent, top dose 1.28 µM)”, the AUC stood at 0.691 and the IC50 was 258 nM.

In the case of “NCI-H1092 (small cell lung carcinoma, suspension, top dose 1.28 µM)”, the AUC was 0.783 and the IC50 was 545 nM.

Regarding “NCI-H1155 (large cell lung carcinoma, suspension, top dose 1.28 µM)”, the AUC was determined as 0.993 and the IC50 was > 1280 nM.

“NCI-H1299 (large cell lung carcinoma, adherent, top dose 1.28 µM)”: the AUC worked out at 0.918 and the IC50 was > 1280 nM.

For the cell line “NCI-H1304 (small cell lung carcinoma, suspension, top dose 1.28 µM)”, the AUC came to 0.845 and the 50% inhibitory concentration (IC50) amounted to 1040 nM.

In the case of “NCI-H1355 (lung adenocarcinoma, adherent, top dose 1.28 µM)”, the AUC is 0.94 and the half-inhibitory concentration (IC50) is > 1280 nM.

“NCI-H1395 (lung adenocarcinoma, adherent, top dose 1.28 µM)”: the AUC was 0.68 and the IC50 amounted to 304 nM.

For “NCI-H1417 (small cell lung carcinoma, suspension, top dose 1.28 µM)”, the AUC came out at 0.643 and the IC50 amounted to 215 nM.

In the case of “NCI-H1435 (lung adenocarcinoma, semi-adherent, top dose 1.28 µM)”, the AUC turned out to be 0.992 and the IC50 was > 1280 nM.

In the case of “NCI-H1436 (small cell lung carcinoma, suspension, top dose 1.28 µM)”, the AUC was found to be 0.849 and the 50% inhibitory concentration (IC50) is 1170 nM.

In the case of “NCI-H1437 (lung adenocarcinoma, adherent, top dose 1.28 µM)”, the AUC worked out at 0.767 and the IC50 is 494 nM.

In the case of “NCI-H1563 (lung adenocarcinoma, adherent, top dose 1.28 µM)”, the AUC turned out to be 0.789 and the half-inhibitory concentration (IC50) came out at 687 nM.

Consider “NCI-H1568 (lung adenocarcinoma, adherent, top dose 1.28 µM)”, for which the AUC was 0.765 and the IC50 was determined as 581 nM.

For the cell line “NCI-H1573 (lung adenocarcinoma, adherent, top dose 1.28 µM)”, the AUC came to 0.979 and the concentration for half-maximal inhibition (IC50) was > 1280 nM.

Take “NCI-H1581 (large cell lung carcinoma, semi-adherent, top dose 1.28 µM)”: the AUC turned out to be 0.71 and the IC50 came out at 296 nM.

Turning to “NCI-H1623 (lung adenocarcinoma, adherent, top dose 1.28 µM)”, the AUC was determined as 0.95 and the concentration for half-maximal inhibition (IC50) was > 1280 nM.

Regarding “NCI-H1648 (lung adenocarcinoma, adherent, top dose 10.24 µM)”, the AUC came to 0.41 and the half-inhibitory concentration (IC50) was 356 nM.

On to “NCI-H1651 (lung adenocarcinoma, adherent, top dose 1.28 µM)”, for which the AUC came to 0.981 and the IC50 was > 1280 nM.

“NCI-H1666 (lung adenocarcinoma, semi-adherent, top dose 10.24 µM)”: the AUC was 0.617 and the half-inhibitory concentration (IC50) amounted to 1390 nM.

For the cell line “NCI-H1688 (small cell lung carcinoma, adherent, top dose 1.28 µM)”, the AUC was 0.851 and the IC50 amounted to 1140 nM.

Take “NCI-H1693 (lung adenocarcinoma, adherent, top dose 10.24 µM)”: the AUC was found to be 0.821 and the half-maximal inhibitory concentration (IC50) is > 10200 nM.

With “NCI-H1694 (small cell lung carcinoma, suspension, top dose 1.28 µM)”, the AUC is 0.759 and the concentration for half-maximal inhibition (IC50) worked out at 443 nM.

For “NCI-H1703 (lung adenocarcinoma, adherent, top dose 1.28 µM)”, the AUC was 0.697 and the concentration for half-maximal inhibition (IC50) was 327 nM.

On to “NCI-H1734 (lung adenocarcinoma, adherent, top dose 10.24 µM)”, for which the AUC came to 0.689 and the concentration for half-maximal inhibition (IC50) was determined as 2290 nM.

For the cell line “NCI-H1755 (lung adenocarcinoma, adherent, top dose 1.28 µM)”, the AUC is 0.9 and the IC50 is > 1280 nM.

Take “NCI-H1770 (non-small cell lung carcinoma, suspension, top dose 1.28 µM)”: the AUC is 0.97 and the IC50 is > 1280 nM.

“NCI-H1781 (lung adenocarcinoma, adherent, top dose 1.28 µM)”: the AUC came out at 0.944 and the half-maximal inhibitory concentration (IC50) was > 1280 nM.

With “NCI-H1792 (lung adenocarcinoma, adherent, top dose 1.28 µM)”, the AUC was 0.976 and the half-maximal inhibitory concentration (IC50) was > 1280 nM.

For “NCI-H1793 (lung adenocarcinoma, adherent, top dose 1.28 µM)”, the AUC stood at 0.962 and the 50% inhibitory concentration (IC50) is > 1280 nM.

Consider “NCI-H1836 (small cell lung carcinoma, suspension, top dose 1.28 µM)”, for which the AUC came out at 0.654 and the IC50 was found to be 224 nM.

On to “NCI-H1838 (lung adenocarcinoma, adherent, top dose 1.28 µM)”, for which the AUC is 0.924 and the IC50 was > 1280 nM.

For the cell line “NCI-H1869 (lung squamous cell carcinoma, adherent, top dose 1.28 µM)”, the AUC came to 0.944 and the 50% inhibitory concentration (IC50) is > 1280 nM.

On to “NCI-H1876 (small cell lung carcinoma, adherent, top dose 1.28 µM)”, for which the AUC was found to be 0.688 and the IC50 worked out at 271 nM.

As to “NCI-H1915 (large cell lung carcinoma, adherent, top dose 1.28 µM)”, the AUC amounted to 0.677 and the IC50 came out at 253 nM.

In the case of “NCI-H1944 (lung adenocarcinoma, adherent, top dose 1.28 µM)”, the AUC worked out at 0.609 and the IC50 amounted to 163 nM.

For the cell line “NCI-H1975 (lung adenocarcinoma, adherent, top dose 10.24 µM)”, the AUC amounted to 0.604 and the half-inhibitory concentration (IC50) was found to be 1290 nM.

In the case of “NCI-H1993 (lung adenocarcinoma, adherent, top dose 1.28 µM)”, the AUC turned out to be 0.616 and the IC50 stood at 185 nM.

On to “NCI-H2009 (lung adenocarcinoma, adherent, top dose 1.28 µM)”, for which the AUC came to 0.981 and the IC50 was > 1280 nM.

For “NCI-H2023 (lung adenocarcinoma, adherent, top dose 1.28 µM)”, the AUC is 0.965 and the half-maximal inhibitory concentration (IC50) was > 1280 nM.

As to “NCI-H2029 (small cell lung carcinoma, adherent, top dose 1.28 µM)”, the AUC stood at 0.848 and the IC50 was 814 nM.

For the cell line “NCI-H2030 (lung adenocarcinoma, adherent, top dose 1.28 µM)”, the AUC was found to be 0.744 and the IC50 is 449 nM.

Regarding “NCI-H2052 (mesothelioma, adherent, top dose 1.28 µM)”, the AUC came to 0.95 and the IC50 is > 1280 nM.

“NCI-H2081 (small cell lung carcinoma, suspension, top dose 1.28 µM)”: the AUC was 0.874 and the IC50 was > 1280 nM.

As for “NCI-H2085 (lung adenocarcinoma, adherent, top dose 1.28 µM)”, the AUC was determined as 0.849 and the concentration for half-maximal inhibition (IC50) was found to be 1080 nM.

Turning to “NCI-H2087 (lung adenocarcinoma, semi-adherent, top dose 10.24 µM)”, the AUC is 0.445 and the IC50 was 448 nM.

For “NCI-H2110 (non-small cell lung carcinoma, adherent, top dose 1.28 µM)”, the AUC is 0.78 and the IC50 stood at 540 nM.

As for “NCI-H2122 (lung adenocarcinoma, adherent, top dose 10.24 µM)”, the AUC turned out to be 0.852 and the 50% inhibitory concentration (IC50) is 7120 nM.

With “NCI-H2135 (non-small cell lung carcinoma, adherent, top dose 1.28 µM)”, the AUC was found to be 0.879 and the IC50 was found to be 1240 nM.

For the cell line “NCI-H2141 (small cell lung carcinoma, suspension, top dose 1.28 µM)”, the AUC is 0.817 and the IC50 was found to be 691 nM.

As to “NCI-H2170 (lung squamous cell carcinoma, adherent, top dose 1.28 µM)”, the AUC was determined as 0.907 and the IC50 is > 1280 nM.

On to “NCI-H2171 (small cell lung carcinoma, suspension, top dose 1.28 µM)”, for which the AUC worked out at 0.718 and the concentration for half-maximal inhibition (IC50) was found to be 300 nM.
